Measured values as given in PubChem BioAssay AID504332 (National Center for Advancing Translational Sciences (NCATS), 2011).
Hit rate of the full screen: of about 350,000 compounds, about 31,000 (8.9%) were called active. The inconclusive results got no clear call from the source; some entries with a clear call stand among them for comparison. Calls come from the whole dose curve; as a rule, active = well fitted inhibition curve with a large enough effect; inconclusive = small, poorly fitted or top-dose-only effect; inactive = no such curve, though single readings can be large or run the other way. Where the call is inconclusive, the potency comes from a doubtful curve fit.

biological target: Histone-lysine N-methyltransferase EHMT2 (Homo sapiens) (UniProt Q96KQ7); test: qHTS Assay for Inhibitors of Histone Lysine Methyltransferase G9a; details: G9a H3K9 monomethylation, AlphaScreen, 2 h; activity, negative = inhibition: at 59 µM (top of the series) unless noted; note: nearly all actives have a fitted effect of over 75% in size
In short: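 Using a bead-based AlphaScreen, monomethylated H3K9 product from 2 h room-temperature reactions (G9a 20 nM, peptide 500 nM, SAM 20 uM) was detected with 0.5 ug/mL rabbit anti-H3K9me1 antibody.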
% is set by controls: 0 for no effect and ±100 for the full control effect; potency is the fitted concentration of half-maximal effect; tags give direction and shape of the fitted curve.

Chain of UniProt Q96KQ7 (Q96KQ7 whole entry, looked up): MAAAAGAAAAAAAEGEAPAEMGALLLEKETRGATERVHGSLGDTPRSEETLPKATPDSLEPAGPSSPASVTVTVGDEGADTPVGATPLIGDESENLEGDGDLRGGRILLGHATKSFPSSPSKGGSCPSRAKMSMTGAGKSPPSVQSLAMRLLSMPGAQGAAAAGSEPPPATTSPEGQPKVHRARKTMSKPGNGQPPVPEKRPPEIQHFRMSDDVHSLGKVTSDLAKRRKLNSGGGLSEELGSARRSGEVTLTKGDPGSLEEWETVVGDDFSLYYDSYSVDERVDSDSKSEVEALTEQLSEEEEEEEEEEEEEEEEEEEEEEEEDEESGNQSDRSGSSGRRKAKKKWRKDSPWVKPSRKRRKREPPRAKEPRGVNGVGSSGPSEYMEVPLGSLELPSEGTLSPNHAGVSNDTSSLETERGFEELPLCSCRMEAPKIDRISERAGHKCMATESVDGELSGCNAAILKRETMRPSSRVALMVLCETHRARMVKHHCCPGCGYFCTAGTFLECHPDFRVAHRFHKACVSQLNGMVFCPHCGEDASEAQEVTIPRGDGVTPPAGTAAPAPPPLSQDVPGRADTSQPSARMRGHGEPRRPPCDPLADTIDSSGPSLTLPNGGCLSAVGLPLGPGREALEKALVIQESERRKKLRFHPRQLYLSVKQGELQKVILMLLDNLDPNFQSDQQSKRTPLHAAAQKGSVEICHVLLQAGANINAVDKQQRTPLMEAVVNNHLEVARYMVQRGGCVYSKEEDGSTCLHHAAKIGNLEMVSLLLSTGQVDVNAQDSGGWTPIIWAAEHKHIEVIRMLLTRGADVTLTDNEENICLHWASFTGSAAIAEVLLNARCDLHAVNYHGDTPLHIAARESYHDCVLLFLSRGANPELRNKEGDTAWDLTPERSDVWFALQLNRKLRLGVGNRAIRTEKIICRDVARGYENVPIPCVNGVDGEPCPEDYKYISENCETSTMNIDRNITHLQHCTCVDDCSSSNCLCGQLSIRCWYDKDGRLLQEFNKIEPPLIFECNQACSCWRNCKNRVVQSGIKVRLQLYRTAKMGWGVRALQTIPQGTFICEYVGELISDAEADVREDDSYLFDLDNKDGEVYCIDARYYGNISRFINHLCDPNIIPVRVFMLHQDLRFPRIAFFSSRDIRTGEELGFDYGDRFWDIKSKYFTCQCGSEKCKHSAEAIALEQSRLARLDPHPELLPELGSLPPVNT

| SMILES | Potency | activity, negative = inhibition |
| --- | --- | --- |
| CCNc1nc(-c2ccc(Cl)cc2)cs1 | inconclusive: 31.6 µM [inhibitor, single point] | – |
| N#CC1(NC(=O)COC(=O)c2ccc(-c3ccc(O)cc3)cc2)CCCCC1 | – | inactive: 11.7% [at 12.7 µM] |
| COC(=O)COc1ccc2c(=O)c(Oc3ccccc3)c(C)oc2c1 | inconclusive: 1.58 µM [inhibitor, full curve, poor fit] | – |
| COc1ccc(C(C(=O)NC(C)(C)C)N(C(=O)CCC(=O)Nc2cc(C)on2)c2c(C)cccc2C)cc1 (centres undefined) | inactive | – |
| NC(=O)CSc1oc(-c2cccs2)nc1S(=O)(=O)c1ccc(Br)cc1 | inactive | – |
| COCCCn1c(SCC(=O)n2c(C)c(C)c3ccccc32)nnc1-c1ccoc1C | – | inconclusive: -63.9% [inhibitor] |
| S=C1NCN(C2CCCCC2)CN1c1ccccc1 | inactive | – |
| NC(=O)N=Nc1c(O)[nH]c2c(Br)cc(Br)cc12 | inconclusive: 35.5 µM [inhibitor, partial curve] | – |
| CN(C)S(=O)(=O)c1ccc(/C(O)=C2/C(=O)C(=O)N(Cc3cccnc3)C2c2cccs2)cc1 (centres undefined) | active: 39.8 µM | – |
| CC(C)(C)NC(=O)CSc1nc(-c2ccc(F)cc2)cc(C(F)(F)F)n1 | inactive | – |
| COc1ccc(N2CCN(C(=O)CSc3nnc(-c4cccnc4)n3-c3ccc(F)cc3)CC2)cc1 | inconclusive: 22.4 µM [inhibitor, single point] | – |
| COc1ccc(S(=O)(=O)NCC(c2ccco2)N2CCN(c3ccc(F)cc3)CC2)cc1 (centres undefined) | inconclusive: 25.1 µM [inhibitor, partial curve, poor fit] | – |
| O=C(c1cnc2c(c1)COc1ccccc1-2)c1ccccc1O | inconclusive: 15.8 µM [inhibitor, partial curve, poor fit] | – |
| CNC(=O)CSc1nnnn1-c1ccc2c(c1)OCCO2 | inconclusive: 28.2 µM [inhibitor, single point] | – |
| COc1ccc(S(=O)(=O)N2CCN(c3ccccc3)CC2)cc1-c1noc(C)n1 | inactive | – |
| Cc1cc(C)c(S(=O)(=O)Nc2cc(Cl)c3oc4c(c3c2)C(=O)CCC4)cc1C | inconclusive: 0.1 µM [inhibitor, full curve, poor fit] | – |
| O=C(CN1C(=O)S/C(=C/c2cccn2-c2ccc(O)cc2)C1=O)N1CCCC1 | inactive | – |
| c1ccc(CC2CNc3ccccc3CN2)cc1 (centres undefined) | inconclusive: 89.1 µM [inhibitor, single point] | – |
| O=C(Nc1nnc(Cc2ccccc2)s1)c1ccco1 | inconclusive: 100 µM [inhibitor, single point] | – |
| CC(C)C(OC(=O)c1cccs1)C(=O)NCCc1ccccc1 (centres undefined) | inactive | – |
| COc1ccc(-c2nc(-c3ccccc3)c(-c3cc([N+](=O)[O-])ccc3C)[nH]2)cc1OC | inconclusive: 22.4 µM [inhibitor, partial curve, poor fit] | – |
| O=C(CSc1nnc(-c2cccs2)n1C1CC1)NC1CCS(=O)(=O)C1 (centres undefined) | inconclusive: 11.2 µM [inhibitor, single point] | – |

| SMILES | Potency | activity, negative = inhibition |
| --- | --- | --- |
| CC(C)(C)n1cnc2cc(NS(=O)(=O)c3ccccc3)ccc21 | – | inactive: -39.3% [at 12.7 µM] |
| CCOC(=O)c1cccc(OCC(O)CNCCOc2ccccc2F)c1 (centres undefined) | active: 50.1 µM | – |
| COC1CCN(C(=O)CC2C(=O)NCCN2CC(C)(C)C)CC1 (centres undefined) | inconclusive: 79.4 µM [inhibitor, single point] | – |
| Cc1ccc(CNC(=O)C(=O)NCC(c2ccco2)S(=O)(=O)c2ccc(C)cc2)cc1 (centres undefined) | inactive | – |
| Fc1ccc(-n2nnc(-c3cnc4ccccc4c3)n2)cc1 | – | inconclusive: -71% [inhibitor] |
| O=C(COc1cc(Cl)ccc1Cl)Nc1ccc2[nH]c(=O)[nH]c2c1 | inconclusive: 79.4 µM [inhibitor, partial curve, poor fit] | – |
| O=C(c1ccccc1)N1CCCC(C(=O)N2CCN(c3ccccc3)CC2)C1 (centres undefined) | inconclusive: 89.1 µM [inhibitor, single point] | – |
| N#Cc1cc2c(N)c(C(=O)Nc3ccccc3)sc2nc1N | – | inconclusive: -91.2% [inhibitor] |
| O=C(Nc1ccc2c(c1)OCO2)Nc1ccccn1 | inconclusive: 56.2 µM [inhibitor, partial curve, poor fit] | – |
| Clc1ccc(SCCCCN2CCNCC2)cc1 | inconclusive: 14.1 µM [inhibitor, partial curve, poor fit] | – |
| N/N=C(\c1ccccc1)C12CN3CN(CN(C3)C1)C2 | inconclusive: 0.447 µM [inhibitor, partial curve, poor fit] | – |
| CC1CCCC(C)N1/N=C/c1cc(Br)cc(Br)c1O (centres undefined) | inconclusive: 50.1 µM [inhibitor, partial curve, poor fit] | – |
| CCCn1c(SCC(N)=O)nnc1-c1ccco1 | inactive | – |
| Nc1nnc(SCC(=O)Nc2cc(C(F)(F)F)ccc2N2CCOCC2)s1 | inconclusive: 1.58 µM [inhibitor, partial curve, poor fit] | – |
| Cc1cccc(CNc2ccc(C(CC(N)=O)NC(=O)c3ccccc3)cc2[N+](=O)[O-])c1 (centres undefined) | inconclusive: 0.794 µM [inhibitor, partial curve] | – |
| COc1ccc(Nc2nc(Nc3ccc(OC)cc3OC)nc(N3CCOCC3)n2)c(OC)c1 | inconclusive: 3.16 µM [inhibitor, full curve] | – |
| CC1CCc2c(sc(NC(=O)c3cccs3)c2C(=O)O)C1 (centres undefined) | – | inactive: 4.53% [at 2.33 µM] |
| Cc1ccc2oc(-c3cccc(NC(=O)c4ccc(N5CCC(C)CC5)c([N+](=O)[O-])c4)c3)nc2c1 | inactive | – |
| CC(C)(C)C(=O)Nc1nc2nc(-c3ccccc3)cc(=O)n2[nH]1 | inconclusive: 39.8 µM [inhibitor, single point] | – |
| COc1ccc(-n2c(NC(=O)c3ccc(Br)o3)c(C#N)c3nc4ccccc4nc32)cc1 | inactive | – |
| Fc1ccc(NC(=S)NCCN2CCOCC2)c(F)c1F | inconclusive: 44.7 µM [inhibitor, partial curve, poor fit] | – |
| CCn1ncc(NC(=S)Nc2ccc(OC)c(OC)c2)c1C(N)=O | active: 44.7 µM | – |
